The whole screen tested about 320,000 compounds, of which about 7,600 (2.4%) were called active. This list was built around the results that the source calls inconclusive (neither active nor inactive); the mix of calls is not that of the screen. The call rests on the fitted dose curve; in most records, active means well fitted activation curve with a large enough effect; inconclusive means small, poorly fitted or top-dose-only effect; inactive means no such curve, though single readings can be large or run the other way. Potencies of inconclusive entries are left out as doubtful fits.
Experiment: qHTS Assay for NPC1 Promoter Activators; further: nearly all actives have a fitted effect of over 60% in size;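 on activation: reporter is driven by a mutant NPC1 promoter; % of control where 0% means no effect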
Conditions: Huh7 NPC1 promoter luciferase reporter, 24 h; series mostly up to 9.22 µM; activation: at the top concentration
Method in brief: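 Cells: Huh7 expressing luciferase under the NPC1 promoter, 1500/well. Seeded 2 h, compound added, incubated 24 h at 37 °C. Luciferase reagent, 10 min ambient, then luminescence.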
Potency means the concentration at half of the fitted maximal effect; tags describe the fitted curve by direction and shape.

SMILES | Potency | activation
Brc1cccc(-c2n[nH]c(-c3ccccc3)n2)c1 | active: 6.31 µM | –
COc1ccc(-n2ncc3c(NCc4cccs4)ncnc32)cc1 | active: 2.51 µM | –
O=C(/C=C/c1ccc(Cl)cc1Cl)Nc1ccc(CN2CCOCC2)cc1 | – | inactive: -7.74%
CCN(CC)c1ccc(C=N/C(C#N)=C(\N)C#N)cc1 | inconclusive [activator, partial curve] | –
N#C/C(=N\Nc1ccc(S(=O)(=O)N2CCCCC2)cc1)C(N)=S | – | inactive: -0.047%
CC1CCC/C=C/C(=O)c2c(O)cc(O)cc2CC(=O)O1 (stereo not drawn) | – | inactive: -38.9%
CCOC(=O)C1=C(CSc2nc(-c3ccccc3)ccc2C#N)OC(N)=C(C#N)C1c1ccc(OC)cc1 (stereo not drawn) | – | inactive: -1.24%
Cc1ccc(C(=O)/C=C\NCc2ccccc2)cc1 | inconclusive [activator, single point] | –
CCOc1ccc(C(=O)N2CCc3ccccc32)cc1 | active: 3.55 µM | –
O=C(Nc1ccccn1)Nc1cccs1 | inconclusive [activator, single point] | –
CN(C)C(=O)c1cc(C(=O)c2ccc(F)cc2Cl)c[nH]1 | inconclusive [activator, partial curve] | –
Cc1sc2nc(CN3CCOCC3)nc(NS(=O)(=O)c3cc(Cl)ccc3Cl)c2c1C | – | inactive: -2.67%
Cc1nc2ccc(NC(=O)c3ccc(Cl)nc3)cc2s1 | – | inactive: 14.1%
N#C/C(=C\c1ccc(OCc2cccc(C(=O)O)c2)cc1)C(=O)NCc1ccco1 | active: 0.355 µM | –
COc1ccc(Cl)cc1C(=O)Nc1ccc2c(c1)OCCO2 | inconclusive [activator, single point] | –
COc1cc(/C=N/Nc2ccc(Cl)c(C(=O)O)c2)ccc1OC(=O)c1ccco1 | inconclusive [activator, single point] | –
CC(C)c1nnc(NC(=O)c2cccs2)s1 | active: 2.82 µM | –
CCN(CC)Cc1c(O)ccc2c(=O)c(-c3ccc4c(c3)OCCO4)coc12 | – | inactive: 2.37%
O=C(Nc1cccc2nsnc12)c1ccc2c(c1)OCCO2 | inconclusive [activator, single point] | –
O=C(NNC(=S)Nc1cccc(Cl)c1)c1ccccc1 | inconclusive [activator, single point] | –
O=C(Nc1nccs1)c1ccc(S(=O)(=O)NCC2CCCCC2)cc1 | – | inactive: -22.4%
Cc1ccc(C(=O)NC(C)C2CC3CCC2C3)c(C)c1 (stereo not drawn) | inconclusive [activator, single point] | –
O=C1CCCC(O)=C1C=Nc1ccc2c(c1)oc1ccccc12 | – | inactive: 24.6%
Fc1ccc(-n2nnc(-c3cccnc3)n2)cc1 | inconclusive [activator, partial curve] | –
Cc1cccc(OCc2ccc(C(=O)N3CCOCC3)o2)c1 | – | inactive: 3.41%
O=C(NNC(=O)c1ccccc1O)c1cc2ccccc2o1 | active: 4.47 µM | –

SMILES | Potency | activation
Brc1ccc(-c2nc(N/N=C/c3cccnc3)c3ccccc3n2)cc1 | active: 2.82 µM | –
CCOC(=O)c1cnc(SCc2ccc(C)cc2)nc1N | inconclusive [activator, single point] | –
Cc1ccc(NC(=O)c2ccc3ccccc3n2)nc1 | active: 2.51 µM | –
Cc1cc(/C=C2/C(=N)N3C(=NC2=O)SN=C3S(C)(=O)=O)c(C)n1-c1ccccc1F | active: 3.16 µM | –
Cc1ccc(-c2csc(NC(=S)NC(=O)c3ccco3)n2)cc1 | – | inactive: -0.9%
Cc1ccc(Oc2ccc(/C=N/O)cn2)cc1 | inconclusive [activator, partial curve] | –
Cc1ccccc1-c1nc2ccccc2[nH]1 | inconclusive [activator, partial curve] | –
Nc1cc(N)nc(SCC(=O)N2CCc3ccccc32)n1 | inconclusive [activator, partial curve] | –
Cc1ccc(-c2cc3c(nn2)-c2ccccc2C3=O)cc1 | inconclusive [activator, single point] | –
NC(=O)c1ccccc1N/C=C/C(=O)c1ccc(F)cc1 | active: 0.708 µM | –
COc1ccc(OCc2ccc(C(=O)O)cc2)cc1 | inconclusive [activator, partial curve] | –
Cc1nnc(NCCc2ccccc2)c2ccccc12 | active: 1.58 µM | –
O=C(Nc1ccc2c(c1)OCCO2)c1cccnc1 | inconclusive [activator, single point] | –
CCOc1ccc(NC(=O)CSc2ccccc2N)cc1 | inconclusive [activator, partial curve] | –
O=C(/C=C/c1cccs1)Nc1cccc(NC(=O)/C=C/c2cccs2)n1 | inconclusive [activator, partial curve] | –
c1ccc(CNc2ncnc3c2ncn3C2CCCCO2)cc1 (stereo not drawn) | inconclusive [activator, partial curve] | –
O=C(c1cc(-c2cccc(O)c2)on1)N1CCOCC1 | inconclusive [activator, single point] | –
CC(Cc1cccs1)NC(=O)Nc1cccc(Cl)c1 (stereo not drawn) | inconclusive [activator, partial curve] | –
CC(=O)Oc1ccccc1/C=C/c1nc2ccccc2c(=O)o1 | inconclusive [activator, partial curve] | –
COc1cc(NC2c3ccccc3C(=O)N2c2ccc(C)cn2)cc(OC)c1OC (stereo not drawn) | inconclusive [activator, single point] | –
Nc1nnc(/C=C/c2ccccc2Cl)s1 | inconclusive [activator, partial curve] | –
Cn1c(SCC(=O)NCCN2C(=O)CSC2=O)nnc1-c1ccccc1 | – | inactive: 0.564%
Cc1nc(NC(=O)c2csc3ccccc23)sc1C | inconclusive [activator, partial curve] | –
CCCCC(=O)Nc1cc2nn(-c3ccc(OC)cc3)nc2cc1C | inconclusive [activator, partial curve] | –
C/C=C/C=C\C(=O)Nc1cccc(C2=NOC3(C2)C[C@@H](C(N)=O)N(C(=O)/C(C)=C/C)C3)c1 (stereo partly drawn) | – | inactive: 13.1%
CCOc1ccc(NC(=O)Cc2ccccc2)cc1 | active: 3.55 µM | –

SMILES | Potency | activation
COc1cc(OC)cc(C(=O)Oc2ccc(/C=N/Nc3nc4ccccc4s3)cc2OC)c1 | inconclusive [activator, partial curve] | –
CC(C)Sc1nnc(NC(=O)c2ccco2)s1 | inconclusive [activator, single point] | –
COc1ccc2oc(=O)c(C(=O)N3CCN(C(=O)c4ccccc4)CC3)cc2c1 | – | inactive: -1.33%
CCCCN(CC)C(=O)Cc1ccc(Br)cc1 | – | inactive: -1.41%
O=C(Cc1cccs1)Nc1nnc(-c2ccccc2)s1 | inconclusive [activator, partial curve, poor fit] | –
COc1ccccc1OCc1cc(C(=O)N2CCN(C)C(c3ccccc3)C2)no1 (stereo not drawn) | active: 3.98 µM | –
Cc1nc(N2CCN(C(=O)c3cnccn3)CC2)c2c3c(sc2n1)CC(C(C)(C)C)CC3 (stereo not drawn) | inconclusive [activator, partial curve] | –
Cc1ccc(C(=O)CSc2nnc(-c3ccco3)n2Cc2ccccc2)cc1 | inconclusive [activator, single point] | –
CCCCc1c(C)nc2cc(-c3ccco3)[nH]n2c1=O | inconclusive [activator, single point] | –
O=C(Nc1ccc2nc(-c3ccco3)[nH]c2c1)c1cccs1 | inconclusive [activator, partial curve] | –
CC(c1ccccn1)N(C)C(=O)c1ccc2nc(Cc3ccccc3F)oc2c1 (stereo not drawn) | inconclusive [activator, single point] | –
Cc1ccc2c(C)c(C(=O)N3CCN(Cc4ccc5c(c4)OCO5)CC3)oc2c1C | inconclusive [activator, single point] | –
CCOC(=O)c1ccc(NC(=O)N(CC)CC)cc1 | inconclusive [activator, partial curve] | –
COc1ccc(Nc2nc(-c3ccccc3)c3ccccc3n2)cc1 | – | inactive: -0.855%
Cc1ccc(-n2nnc(-c3cccnc3Cl)n2)cc1 | active: 0.794 µM | –
COc1ccc(NC2CCCN(C(=O)CN3CCOC3=O)C2)cc1 (stereo not drawn) | inconclusive [activator, single point] | –
O=C(Nc1ccc(F)cc1)c1csc(Cc2ccccc2)n1 | inconclusive [activator, partial curve] | –
CN(C)c1ccc(/C=N/Nc2cccc(C(=O)O)c2)cc1 | inconclusive [activator, full curve] | –
Cc1cc(CN2CCN(CC(=O)Nc3cc(C(F)(F)F)ccc3-n3cncn3)CC2)no1 | – | inactive: 0.0256%
CC(=O)n1nc(-c2ccc(C)cc2)nc1NCc1ccco1 | active: 2.51 µM | –
CN(C)c1ccc(/C=N/N=C2/NC(=O)/C(=C/c3ccc([N+](=O)[O-])cc3)S2)cc1 | inconclusive [activator, full curve] | –
O=C(NCCOc1ccccc1Cl)c1cc(F)c(F)cc1Cl | active: 2.82 µM | –
Cc1ccc(NC(=O)c2ccc(Nc3c([N+](=O)[O-])cc([N+](=O)[O-])cc3[N+](=O)[O-])cc2)cc1 | – | inactive: 1.4%
CCOC(=O)c1csc(N)n1 | inconclusive [activator, single point] | –
COC(=O)c1ccc(C2OCC(C)(C)CO2)cc1 | inconclusive [activator, partial curve] | –
Cn1c(-c2ccccc2)cc2c3no[n+]([O-])c3ccc21 | inconclusive [activator, single point] | –

From PubChem BioAssay AID485313 (National Center for Advancing Translational Sciences (NCATS), 2010)
